Data taken from PubChem BioAssay AID651820 (National Center for Advancing Translational Sciences (NCATS), 2012).
Among all 340,000 compounds or so, about 12,000 (3.5%) were called active. The shares of active, inactive and inconclusive entries below differ from those in the screen. Calls come from the whole dose curve; as a rule, active = well fitted inhibition curve with a large enough effect; inconclusive = small, poorly fitted or top-dose-only effect, or another doubt; inactive = no such curve, though single readings can be large or run the other way. No potency is given beside an inconclusive call; the fits are too rough.

test: qHTS Assay for Inhibitors of Hepatitis C Virus (HCV); details: Huh7.5.1 HCVcc-Cre (HCVcc is cell-culture hepatitis C virus) infection, luciferase reporter, 44 h; series mostly up to 41.8 µM
Procedure, shortened: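 Infectious HCV cell culture screen: compound-treated cells (1,000/well, pre-plated 4 h) are infected with HCVcc-Cre at roughly 0.5 moi and grown 44 h. Infection is quantified by luciferase signal after 15 min substrate incubation at room temperature.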
Potency is the fitted concentration of half-maximal effect; tags give direction and shape of the fitted curve.

Structure (SMILES) | Potency
Cc1cc(C(F)(F)F)n(-c2nc(C(=O)NN)cs2)n1 | inactive
Cc1cc(C)nc(N/N=C/c2cc3c(cc2[N+](=O)[O-])OCO3)n1 | inconclusive [inhibitor, single point]
c1ccc2c(c1)ncn2CCn1cnc2ccccc21 | inactive
CCOC(=O)Cc1csc(NC(=O)CSc2nnc(C(C)C)n2C)n1 | inactive
CCN(CC(=O)NCc1cccs1)C(=O)c1ccc(OC)c(OC)c1 | inactive
Cc1ccc(-n2c(=O)[nH]cc(C(=O)N3CCc4ccccc43)c2=O)cc1C | inconclusive [inhibitor, single point]
O=C(Nc1ccc2c(c1)OCCO2)c1ccc(Cl)cc1 | inactive
Nc1ccn(C2OC(COC(=O)C34CC5CC(CC(C5)C3)C4)C(O)C2O)c(=O)n1 (stereo not given) | inactive
Cc1c(C(=O)NCc2ccc3c(c2)cc(C)n3C)cccc1[N+](=O)[O-] | inconclusive [inhibitor, partial curve]
Brc1ccc(CNc2nc3ccccc3n2CCN2CCCCC2)cc1 | inconclusive [inhibitor, single point]
COc1ccc(NC(=O)CCCCCN2C(=O)[C@@H]3Cc4ccccc4CN3C2=O)cc1Cl | inconclusive [inhibitor, partial curve]
O=C(O)Cc1ccc2oc(-c3ccccn3)nc2c1 | inactive
O=C(NCCCN1CCC(Cc2ccccc2)CC1)C1CC(=O)N(C2CCCCCC2)C1 (stereo not given) | active: 3.98 µM
CCCCCNS(=O)(=O)c1cc2c3c(c1)CCC(=O)N3CCC2 | inactive
COc1cccc(NC(=O)CN(C)C(=O)c2cccc(S(=O)(=O)Nc3ccccc3OC)c2)c1 | inactive
CC(=O)c1c(C)nn(CC(O)Cn2c3c(c4cc(C)ccc42)CCCC3=O)c1C (stereo not given) | inconclusive [inhibitor, full curve, poor fit]
CCc1nnc(NC(=O)CSc2sc3c(O)cc(=O)[nH]c3c2C#N)s1 | inactive
CCOc1ccc(C(=O)Nc2nnc(C(C)C)s2)cc1OCC | inconclusive [inhibitor, partial curve, poor fit]
CC(C)NC(=S)NN=C1c2ccccc2-c2ccccc21 | inconclusive [inhibitor, single point]
CCNCC(=O)Nc1c(C)cccc1C | inconclusive [inhibitor, full curve]
CN(C)C(=O)c1ccccc1NC(=O)Cc1cccc2ccccc12 | inactive
CCCCCCSC1=C(C#N)C(c2ccccc2)CC(=O)N1 (stereo not given) | inconclusive [inhibitor, partial curve]
CC(NC(=O)/C(C#N)=C1\N=C(NC(=O)c2cccs2)c2ccccc21)c1ccccc1 (stereo not given) | inactive
O=C(COc1ccccc1Cl)NCc1ccncc1 | inactive
C[C@H](NC(=O)c1cccc([N+](=O)[O-])c1)C(=O)OCC(=O)c1ccccc1Br | inactive

Structure (SMILES) | Potency
CC(C)CNC1=C(C(=S)Nc2ccccc2)C(=O)CC(C)(C)C1 | inconclusive [inhibitor, single point]
CCCn1c(C)cc(/C=C(\C#N)C(=O)OCC(=O)Nc2cccc(OC)c2)c1C | inconclusive [inhibitor, single point]
O=c1c2ccccc2nnn1CSc1nnc(-c2cccc(S(=O)(=O)N3CCCCC3)c2)o1 | inconclusive [inhibitor, partial curve]
N#Cc1ccccc1N1CCN(C(=O)c2ccc(NC(=O)c3ccc(Br)o3)cc2)CC1 | inactive
Cc1cc(C)c(C)c(S(=O)(=O)NCc2ccncc2)c1C | active: 7.08 µM
CCN1CCN(CCNC(=O)CCc2c(C)c3c(C)nn(-c4ccccc4)c3n(C)c2=O)CC1 | active: 15.8 µM
CCCn1c(SCC(=O)Nc2cc(C(=O)O)ccc2C)nc2sc3c(c2c1=O)CCC3 | inactive
Cc1c(C(=O)Nc2cc(F)cc(F)c2)cnn1-c1ccccc1 | active: 11.2 µM
C[C@@H]1CN([C@H](C)CO)C(=O)c2cc(NC(=O)Nc3cccc4ccccc34)ccc2O[C@H]1CN(C)Cc1ccc(C(F)(F)F)cc1 | inconclusive [inhibitor, single point]
COc1cc(CNC(C)C23CC4CC(CC(C4)C2)C3)ccc1OCC(=O)NC(C)(C)C (stereo not given) | inconclusive [inhibitor, single point]
O=c1cc(-c2cc3ccccc3o2)c2cc(O)ccc2o1 | inconclusive [inhibitor, single point]
CC1(C)O[C@@H]2[C@H](O1)[C@@H](CO)O[C@H]2n1cc(Br)c(=O)[nH]c1=O | inactive
CCOC(=O)C1=NN(c2ccccc2)C2(S1)SC(C(C)=O)=C(C)N2c1ccccc1 (stereo not given) | inconclusive [inhibitor, single point]
Cc1ccnc2nc(NC(=O)c3ccco3)nn12 | inactive
CC(C(=O)NCCc1ccc(F)cc1)N1CCN(Cc2ccccc2)CC1 (stereo not given) | inactive
CC(=O)c1c(N2CCCC2)[nH]c(-c2ccccc2)nc1=S | active: 22.4 µM
O=C(Nc1cc(N2CCOCC2)ncn1)NC1(C(F)(F)F)Oc2ccccc2O1 | inconclusive [inhibitor, partial curve]
O=C(NNC1CC(c2ccccc2)=NN1C(=O)c1ccccc1)c1ccccc1 (stereo not given) | inactive
COc1cccc(CN(C)C(=O)COc2cccc3c2OC(C)(C)C3)c1OC | inactive
CCn1c(SCC(=O)Nc2cccc(C)c2)nc2ccccc2c1=O | inconclusive [inhibitor, partial curve]
CCOC(=O)N/N=C/c1c(F)cccc1F | inactive
Cc1nc2ccc(C(=O)c3ccccc3)cc2[nH]1 | inconclusive [inhibitor, single point]
Cc1cc(=O)[nH]c(NN=Cc2cc(Br)ccc2O)n1 | inconclusive [inhibitor, full curve]
CN1CCCCc2c1[nH]c1ccccc1c2=O | inconclusive [inhibitor, single point]
O=C(OCCNc1ccc(C(F)(F)F)cc1[N+](=O)[O-])c1cc2ccccc2oc1=O | inactive
